The labels stand for the following.
B1: LINE1-mini (parent)
chain: GGCAGAGCUCAACACAGCGUGGCAAAGUGGCUGUGGCUAGACUGCC

This note sets out measurements from the RNAGym collection of RNA variant scans (doi:10.7554/elife.90254).

The source gives no read counts; variants with many changes may rest on few reads.

Variants of B1 are the subject of this data set. In words: self-cleavage, relative activity (ratio to wild type); higher = more cleavage; in vitro, sequencing; the parent is a self-cleaving ribozyme.
GGCAGAGCUUAACACAGCGUUGCAAAGUGGCUGUUACUAGACUGGC: the self-cleavage was determined as 0.03.

As to GGCAGAGCUUAACACAGCGUUGCAAUAUGGCUGUGGAUAGACUGCC, the self-cleavage was 0.01.

On to GGCAGAGCUUAACACAUCGUGGCAAAGUGGCUGUGGCUAGAUUGCC, for which the self-cleavage amounted to 0.18.

As for GGCAGAGCUUAACACAGCGUGGCAAAGUGGCUAUGGCUAGACCGUC, the self-cleavage stood at 0.02.

As for GGCAGAGCUUAACACAGCGUGGCAAACUGGCUGUGGCAAGACUGCC, the self-cleavage is 0.05.

Turning to GGCAGAGCUUAACACACCGUGGCAAAGUGGCUGUGGCUAGACUGGC, the self-cleavage was found to be 0.15.

On to GGCAGAGCUUAACACAGCGUGGCAAAGUGUCUGUGGCUAGACUGGC, for which the self-cleavage came to 0.08.

In the case of GGCAGAGCUUAACACAGCGUGGCAAAGUGGCUGUGGUUAGACUCCC, the self-cleavage was determined as 0.03.

Take GGCAGAGCUUAACACAGCAUGGCAAAGUGGCUGAGGCUAGCCUGGC: the self-cleavage was determined as 0.01.

As to GGCAGAGCUUAACACAGCGUGGCAAAAUGGAUGUGGCUAGACUGCC, the self-cleavage was found to be 0.79.

In the case of GGCAGAGCUUAACACAGAGUGGCACAGUUGCUGUGGCUAGAUUGCC, the self-cleavage was 0.29.

With GGCAGAGCUUAACAUAGCGUGGCAAAGUGGCUGUGUCUAGACUGCC, the self-cleavage is 0.05.

Turning to GGCAGAGCUUAACACAGCGUGGCAAAGUUGCUGUGGAUAGACUGCC, the self-cleavage came out at 0.01.

Turning to GGCAGAGCUUAACACAGCAUGGCAAAGAGGCUGUGGCUAGACUGCC, the self-cleavage is 0.24.

For GGCAGAGCUUAACACAGCAUGGCAAAGUGGCUGUGGCUAGACAGCC, the self-cleavage turned out to be 0.02.

Regarding GGCAGAGCUUAACACAGCUUGGCAAAGUUGCUGUGGCUAGACUGCC, the self-cleavage worked out at 0.57.

On to GGCAGAGCUUAACACAGCGUGGCAAAGUGGGUGUGGCUAGACUGUC, for which the self-cleavage turned out to be 0.02.

Regarding GGCAGAGCUUAACACAGCGUGGCAAAGUGGCUGUGGCUAGAGUGCA, the self-cleavage turned out to be 0.02.

As for GGCAGAGCUUAACACAGCGUGGCAAAGUGGUUCUGGCUAGACUGCC, the self-cleavage turned out to be 0.05.

On to GGCAGAGCUUAACACAGCGUGGCAAAUUGGCUGUUGCUAAAUUGCC, for which the self-cleavage stood at 0.03.

For the variant GGCAGAGCUUAACACAGCUUGGCAAAGUGGUUGUGGCUAGACUCCC, the self-cleavage is 0.19.

As to GGCAGAGCUUAACACACCGUGGCAAAGUGGCUGGGGCUAGACUGCA, the self-cleavage came out at 0.01.

In the case of GGCAGAGCUUAACACAUCGUGGCAAAGUCGCUGUGGCUAGACUGAC, the self-cleavage is 0.04.

For the variant GGCAGAGCUUAACAUAGCGAUGCAAAGUGGCUAUGGCUAGACUGGC, the self-cleavage came out at 0.04.

Regarding GGCAGAGCUUAACACAGCGUGGCAAAUUGGCCGUGGCUAGACUGCC, the self-cleavage turned out to be 0.06.

With GGCAGAGCUUAACACAGCGUGGCAAAGUGGAUGUGGCUAGACUGCG, the self-cleavage amounted to 0.12.

As to GGCAGAGCUUAACACAGAGUGGCAAAAUGGCUGUAGUUAGACUGCC, the self-cleavage was 0.01.

Take GGCAGAGCUUAACACAGCGUGGCAAAGUGGGUGUGGCUAGAAUGCC: the self-cleavage was 0.02.

As for GGCAGAGCUUAACACAGCGUGGCAAAGUGGCUGUGGCUAGACUGGG, the self-cleavage turned out to be 0.06.

Consider GGCAGAGCUUAACACAGCGUGGGAAAGUGGCUGUGGGUAGACUGCC, for which the self-cleavage is 0.02.

As for GGCAGAGCUUAACACAUCGUGGCAAAGUGGCUGAGGCUAGACUGCC, the self-cleavage turned out to be 0.06.

On to GGCAGAGCUUAACACAGCGUUGCAAAGUGGCUGUGGGUAGACUGCC, for which the self-cleavage came to 0.01.

Turning to GGCAGAGCUUAACACAUCGUGGCAAAGUAGCUGUGGCUAGACUGCC, the self-cleavage was found to be 0.02.

As for GGCAGAGCUUAACACAGUUUGGCAAAGUGUCUGUGGCUAGACUCCC, the self-cleavage was determined as 0.08.

Take GGCAGAGCUUAACACAGCGUGUCAAAGUGGCUGUCGCUAGACUACC: the self-cleavage is 0.02.

On to GGCAGAGCUUAACACAGCGUGACAAAGUGACUGUAGCUAGACUGCC, for which the self-cleavage amounted to 0.06.

Turning to GGCAGAGCUUAACACAGCGUUGCAAAGUGGCUCUUGCUAGACUCCC, the self-cleavage came to 0.04.

Take GGCAGAGCUUAACACAUCGUGGCAAAGUGGCUGUGGCUAGACUGGC: the self-cleavage amounted to 0.

For the variant GGCAGAGCUUAACACAGAGUGGCAAAGUGGCUGUGGCGAGACUGCC, the self-cleavage stood at 0.04.

For the variant GGCAGAGCUUAACACAGCGUGGCAAAGUGGCUGUGGAUAGUCUGCC, the self-cleavage was found to be 0.02.

With GGCAGAGCUUAACACAGCGUCGCAAAGUGGCUGGGGCUAGAGUGCC, the self-cleavage came out at 0.03.

As for GGCAGAGCUUAACACAGAGUGGCACAGUGGAUGUGGUUAGACUGCC, the self-cleavage came to 0.02.

Consider GGCAGAGCUUAACACAGUGUGGCAAAGUCGCUGUGGCUAGACUGCC, for which the self-cleavage amounted to 0.1.

Take GGCAGAGCUUAACACAGUGUGGCAAAGUAGCUGUGGCUAGACUGCC: the self-cleavage is 0.61.

Turning to GGCAGAGCUUAACACAGCGUGGCAAAGUGGAUUUGGCUAGACUGCC, the self-cleavage was 0.03.

For GGCAGAGCUUAACACAGCGUGGCAAAGUCGCUCUGGCUAGACUGCC, the self-cleavage came out at 0.06.

Consider GGCAGAGCUUAACACAGCGUGGCAAAUUGGCUGUGGCUAGGCUGCC, for which the self-cleavage was 0.02.

Consider GGCAGAGCUUAACACAGAGUGGCAAAGUGGCUGUGGCUAGACUGAC, for which the self-cleavage was 0.13.

Turning to GGCAGAGCUUAACACACCGUGGCAAAGUCGCUGUGGCUAGACUGCC, the self-cleavage was determined as 0.03.

GGCAGAGCUUAACACAGUGGGGCAAAGUGGCUGUGGCUAAACUGCC: the self-cleavage worked out at 0.03.

As to GGCAGAGCUUAACACAGCGUGGCAAAGUGGCUGUGGCUAGAGUGAC, the self-cleavage came out at 0.03.

Turning to GGCAGAGCUUAACACAGCGUGUCAAUGUGGCUAUGGCUAGACUGCC, the self-cleavage was 0.09.

Take GGCAGAGCUUAACACAACGUGGCAAAGUGGGUGUGGCUAGACUGCC: the self-cleavage worked out at 0.1.

As for GGCAGAGCUUAACACAGCGUGGCAAACUGGCUGUGGGUAGACUGCC, the self-cleavage turned out to be 0.

As to GGCAGAGCUUAACACAACGUGGCAAAGUGGCUUGGUCUAGACUGCC, the self-cleavage was 0.03.

On to GGCAGAGCUUAACACAGCUUGGCAUAACGGGUGUGGCUAGACUGCC, for which the self-cleavage was 0.45.
